According to PubChem BioAssay AID1345083 (National Center for Advancing Translational Sciences (NCATS), 2018):
Hit rate of the full screen: of about 94,000 compounds, about 6,200 (6.6%) were called active. Inconclusive means that the source gave no clear call. Such entries were picked first, then a sample of the others. The call rests on the fitted dose curve; in most records, active means well fitted inhibition curve with a large enough effect; inconclusive means small, poorly fitted or top-dose-only effect; inactive means flat fitted curve, though single readings scatter. Potencies beside an inconclusive call are fits to weak or partial responses and may not hold up.

Experiment: Cytotoxic Profiling in HEK 293 Cell Line of Diverse Libraries Using Quantitative High-Throughput Screening; further: nearly all actives have a fitted effect of over 60% in size
Conditions: HEK 293 viability, ATP luminescence (CellTiter-Glo), 48-72 h; activity change, negative = cytotoxicity: at 115 µM (top of the series) unless noted; series mostly up to 115 µM
Summary of the method: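 ATP-coupled CellTiter-Glo luminescence served as viability read-out, recorded 10 min after reagent addition at room temperature. HEK 293 cells, 250 cells/well, had been incubated with pintool-transferred compound for 48 or 72 hr at 37 degree Celsius.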
On the % scale 0 is the no-effect control and ±100 the full control effect; potency means the concentration at half of the fitted maximal effect; tags describe the fitted curve by direction and shape.

| Structure (SMILES) | Potency | activity change, negative = cytotoxicity | outcome |
| --- | --- | --- | --- |
| O=C(CCc1cccs1)N1CCOC(CCCc2ccccc2)C1 (stereo unspecified) | inconclusive: 89.1 µM [inhibitor, single point] |  |  |
| O=C([C@@H]1C[C@H](F)CN1C(=O)c1ccsc1)N1CCOCC1 |  | inactive: -1.42% |  |
| C=CCNC(=O)c1cc2cccnn2n1 |  | inactive: -1.97% [at 230 µM] |  |
| CC(=O)Nc1ccc(S(=O)(=O)N[C@H]2CO[C@H]3[C@@H]2OC[C@@H]3Nc2nccc(C(C)(C)C)n2)cc1 | inconclusive: 44.7 µM [inhibitor, partial curve, poor fit] |  |  |
| CN(C)CC(=O)N1Cc2ccccc2CC2(CCN(Cc3ccccc3)C2)C1 (stereo unspecified) |  | inactive: -15.1% |  |
| CCOC(=O)C1c2c(OC)ccc3c2C(=CC(C)(C)CO3)CN1Cc1nccn1C (stereo unspecified) | inconclusive: 56.2 µM [inhibitor, partial curve, poor fit] |  |  |
| COCCNC(=O)[C@@H]1C[C@@H](O)CN1C1CCN(C(=O)Cc2ccccc2)CC1 |  | inactive: -5.3% |  |
| Cc1noc(C)c1[S+](=O)([O-])N1CCC(C(=O)C2CCC(N3Cc4cccn4C3=O)CC2)CC1 (stereo unspecified) |  | inactive: 0.68% |  |
| Cc1cn2nc(C(=O)Nc3ccc(Cl)c(C)c3)cc2c(N2CCSCC2)n1 | inconclusive: 100 µM [inhibitor, single point] |  |  |
| O=C(NC[C@H]1Cn2c(-c3ccc4c(c3)OCO4)cnc2CO1)Nc1ccc(F)cc1 | inconclusive: 89.1 µM [inhibitor, partial curve, poor fit] |  |  |
| O=C(NC1CCCN(Cc2ccc(-c3cncnc3)cc2)C1)c1cccc(Cl)c1 (stereo unspecified) | inconclusive: 56.2 µM [inhibitor, partial curve, poor fit] |  |  |
| COCCN1CCCN(C(=O)c2ccccc2Cl)c2ccccc21 | inconclusive: 79.4 µM [inhibitor, partial curve, poor fit] |  |  |
| COc1ccc(C(=O)N[C@H]2CO[C@H]3[C@@H]2OC[C@@H]3Nc2nccc(C(C)(C)C)n2)cc1 | inconclusive: 89.1 µM [inhibitor, partial curve] |  |  |
| O=C(c1ccc2[nH]ccc2c1)N1CCCC(Cc2noc(-c3ccccn3)n2)C1 (stereo unspecified) | inconclusive: 79.4 µM [inhibitor, single point] |  |  |
| CN(C)c1ccc2ncc(Nc3ccccc3Cl)n2n1 | inconclusive: 100 µM [inhibitor, partial curve, poor fit] |  |  |
| Cc1ccc([S+](=O)([O-])N2CCN(C(=O)c3nc4cccnc4n(C4CCCC4)c3=O)CC2)cc1 | active: 39.8 µM |  |  |
| O=C(c1ccsc1)N1CCCCCC1c1nnc(-c2ccccc2)o1 (stereo unspecified) | inconclusive: 35.5 µM [inhibitor, full curve] |  |  |
| O=C(N[C@H]1CCN2C(=O)c3cc(-c4ccccc4)ccc3NC(=O)[C@H]12)c1cccc(F)c1 | active: 89.1 µM |  |  |
| COc1ccc(NC(=O)Cn2nc3n(c2=O)CCCC3)cc1 |  | inactive: 3.54% |  |
| Cc1ccc(-c2ccccc2CN2CCC(C(=O)NCC3CCCCC3)CC2)cc1Cl |  | inactive: -4.86% |  |
| O=C1NCCCCCN(Cc2ccc(F)cc2F)[C@H]2CCC[C@@H]12 | inconclusive: 56.2 µM [inhibitor, partial curve, poor fit] |  |  |
| Cn1cccc1C(=O)N1CCC2(CC1)CN(Cc1ccccc1)CC2CO (stereo unspecified) | inconclusive: 89.1 µM [inhibitor, single point] |  |  |

| Structure (SMILES) | Potency | activity change, negative = cytotoxicity | outcome |
| --- | --- | --- | --- |
| Cc1ccc2nc(CO[C@H]3CN(Cc4ccc(F)c(F)c4)C[C@H]3F)[nH]c2c1 | inconclusive: 100 µM [inhibitor, partial curve] |  |  |
| Cc1ccc(C(=O)NC[C@@H]2CC[C@H]3C[C@@H]2C3(C)C)cc1 | inconclusive: 100 µM [inhibitor, partial curve, poor fit] |  |  |
| Cc1nn(CCC#N)c(C)c1[C@@H]1C=C[C@@H](NC(=O)NC(C)C)C1 |  | inactive: 0.269% [at 172 µM] |  |
| COC1CCN(C(=O)c2ccnc(-c3nnc4ccc(N(C)C)nn34)c2)CC1 |  | inactive: -5.53% [at 172 µM] |  |
| O=C(Nc1ccc(F)cc1)c1ccc2cc[nH]c2n1 | inconclusive: 112 µM [inhibitor, partial curve, poor fit] |  |  |
| O=C(Nc1cccc2ccccc12)O[C@@H]1CO[C@H]2[C@@H]1OC[C@@H]2NS(=O)(=O)Cc1ccccc1 |  | inactive: -0.515% |  |
| O=C(C1CCCN1C(=O)Nc1ccc(Cl)cc1)N1CCC(N2CCCC2=O)CC1 (stereo unspecified) |  |  | inactive |
| COc1ccc2[nH]c3c(c2c1)CCN(C)C31CCN(C(=O)c2ccsc2)CC1 | inconclusive: 89.1 µM [inhibitor, partial curve, poor fit] |  |  |
| CC(=O)N1CCC[C@@H]1C(=O)N1CCCC(c2nc3ccncc3[nH]2)C1 (stereo partly specified) |  | inactive: -0.0976% |  |
| O=C(C1CCCC1)N1CCN(c2nccc(Nc3ccccc3F)n2)CC1 | inconclusive: 44.7 µM [inhibitor, partial curve, poor fit] |  |  |
| O=C(c1ccn[nH]1)N1CC(F)(F)C[C@H]1c1nc(C2CC2)no1 |  |  | inactive |
| COc1ccc(-c2cnc([C@@H]3COCCN3Cc3cccc(C#N)c3)[nH]2)cc1 | inconclusive: 100 µM [inhibitor, partial curve] |  |  |
| COc1ccc(C2(c3nc(C4CC(=O)N(C5CCCCC5)C4)no3)CC2)cc1 (stereo unspecified) | inconclusive: 44.7 µM [inhibitor, partial curve, poor fit] |  |  |
| COc1cccc(-c2cc(C(=O)NCc3nc(-c4ccccc4)n[nH]3)[nH]n2)c1 | inconclusive: 89.1 µM [inhibitor, single point] |  |  |
| Cc1nn(-c2ccccc2)c2c1C(C1CC1)N(C1CCN(C(=O)c3ccc(F)cc3)C1)C2=O (stereo unspecified) | active: 35.5 µM |  |  |
| Cc1cccc(C(=O)NC2CCN(c3cc(-c4ccc(Cl)cc4)[nH]n3)C2)c1 (stereo unspecified) | inconclusive: 44.7 µM [inhibitor, partial curve, poor fit] |  |  |
| O=C(Nc1ccc(F)cc1)c1ccc2nc(-c3ccncc3)oc2c1 |  | inactive: -34.3% [at 172 µM] |  |
| COc1cccc(CNC(=O)C2CCCN2C(=O)c2cccc(-c3ccccn3)c2)c1 (stereo unspecified) |  |  | inactive |
| Cc1ccc2c(n1)O[C@@H](COCc1ccccc1)CN(Cc1cccs1)C2=O | active: 31.6 µM |  |  |
| Clc1ccccc1CNC[C@H]1Cn2cc(-c3ccccc3)nc2CO1 | active: 100 µM |  |  |
| COC(=O)c1cn([C@H]2CO[C@H]3[C@@H]2OC[C@H]3OC(=O)Nc2cccc(C#N)c2)nn1 |  | inactive: -4.54% [at 172 µM] |  |
| COc1cccc(-c2ccc(COc3ccc4c(cnn4CCC(=O)O)c3)cc2)c1F | inconclusive: 89.1 µM [inhibitor, partial curve] |  |  |

| Structure (SMILES) | Potency | activity change, negative = cytotoxicity | outcome |
| --- | --- | --- | --- |
| CCN(CCNC(=O)CN1CC2CC(C1)[C@H]1CCCC(=O)N1C2)Cc1ccccc1 (stereo partly specified) |  | inactive: -6.71% |  |
| Cc1nn(-c2ccccc2)c2c1C(C(C)C)N(C1CCN(C(=O)c3ccccc3Cl)CC1)C2=O (stereo unspecified) | inconclusive: 35.5 µM [inhibitor, full curve, poor fit] |  |  |
| Cn1ccnc1CN1CCC2(CC1)COCCN2C(=O)OCc1ccccc1 | inconclusive: 100 µM [inhibitor, partial curve, poor fit] |  |  |
| COc1ccccc1CC(=O)N1CCC2(CC1)N=C(c1ccccc1)NO2 |  | inactive: -9.05% |  |
| COc1cccc(-c2ccc(CN3CCCC3C(=O)NCc3ccccc3)cc2)c1 (stereo unspecified) | active: 39.8 µM |  |  |
| COc1ccc(C(=O)N2CCC(n3cc(-c4nc(C(C)C)no4)nn3)CC2)cc1F |  | inactive: -20.9% |  |
| Cc1noc(C)c1[S+](=O)([O-])N1CCCC1C(=O)N1CCC(c2ccccc2)CC1 (stereo unspecified) | inconclusive: 79.4 µM [inhibitor, partial curve] |  |  |
| CC(C)Oc1cccc2c1c(NC(=O)c1cccnn1)nn2Cc1ccccc1 | active: 50.1 µM |  |  |
| CN(C(=O)CN1C(=O)NC2(CCCCC2)C1=O)C1CCCCC1 |  | inactive: 4.11% |  |
| CN1Cc2ncnc(NCCc3ccc(F)cc3)c2CN(c2ccc(Cl)cc2)C1=O | inconclusive: 50.1 µM [inhibitor, partial curve, poor fit] |  |  |
| COCC1CN(Cc2ccc(OC(F)(F)F)cc2)CC12CCNCC2 (stereo unspecified) | inconclusive: 79.4 µM [inhibitor, partial curve, poor fit] |  |  |
| CC1=C(C(=O)OC(C)C)C(c2ccc([N+](=O)[O-])cc2)N2C(CC(=O)N3CCCC3)=CSC2=N1 (stereo unspecified) | inconclusive: 39.8 µM [inhibitor, partial curve] |  |  |
| CC1CCC2(CC1)NC(=O)N(CC(=O)Nc1ccc(F)cc1F)C2=O (stereo unspecified) | inconclusive: 100 µM [inhibitor, single point] |  |  |
| CC1(CNc2ccccc2)COc2ccc(C(=O)NCCc3cnc[nH]3)cc2N1 (stereo unspecified) | inconclusive: 35.5 µM [inhibitor, partial curve, poor fit] |  |  |
| CCOc1ccccc1CNC(=O)c1c(C)noc1-c1ccc2c(c1)OCO2 | inconclusive: 35.5 µM [inhibitor, full curve, poor fit] |  |  |
| COCc1nc(-c2ccc(OC3CCN(C(=O)c4n[nH]c5ccccc45)C3)cc2)no1 (stereo unspecified) | inconclusive: 31.6 µM [inhibitor, full curve] |  |  |
| Cc1ccc(C)c(C(=O)NCc2nnc3ccc(-c4ccc(C)c(C)c4)nn23)c1 | inconclusive: 79.4 µM [inhibitor, partial curve] |  |  |
| Cc1ccc(-c2noc([C@@H]3CCCN3C(=O)Cc3ccccc3Cl)n2)cc1 | inconclusive: 44.7 µM [inhibitor, partial curve, poor fit] |  |  |
| CC(C)CC(=O)N1CCC(c2noc(-c3ccncc3)n2)C1 (stereo unspecified) |  | inactive: 0.953% |  |
| COc1ccccc1Cn1c(=O)c(C(=O)N2CCN(Cc3ccccc3)CC2)nc2cccnc21 | inconclusive: 44.7 µM [inhibitor, partial curve, poor fit] |  |  |
| Cc1ccccc1CN1C[C@@H]2C(=O)N(Cc3ccc4c(c3)OCO4)C(=O)[C@@H]2C1 | inconclusive: 56.2 µM [inhibitor, partial curve, poor fit] |  |  |
| Cn1cc(CC(=O)N2CCCc3ncc(C(=O)Nc4cccc(Cl)c4)cc32)c2ccccc21 | inconclusive: 31.6 µM [inhibitor, full curve, poor fit] |  |  |
